Measurements as given in PubChem BioAssay AID504832 (National Center for Advancing Translational Sciences (NCATS), 2011).
In all, about 310,000 compounds went through this assay and about 18,000 (5.8%) were called active. Inconclusive means that the source gave no clear call. Such entries were picked first, then a sample of the others. Calls follow the shape of the dose curve; as a rule, active = well fitted inhibition curve with a large enough effect; inconclusive = small, poorly fitted or top-dose-only effect, or another doubt; inactive = no such curve, though single readings can be large or run the other way. No potency is given beside an inconclusive call; the fits are too rough.

Assay: Primary qHTS for delayed death inhibitors of the malarial parasite plastid, 48 hour incubation
Details: P. falciparum luciferase growth in erythrocytes; series mostly up to 28.7 µM
Summary of the method: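 Compounds are pin-transferred into medium, infected erythrocytes (2% hematocrit, 0.1% parasitemia final) are added, and plates sit one parasite generation at 37 C in 5% CO2. Detection reagent is then added and luminescence measured.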
Potency is read from the fitted curve at half-maximal effect; tags tell the direction and shape of the fitted curve.

Row | SMILES | Potency
1 | CCn1c(Cc2cccs2)nnc1SCC(=O)NC(C)(C)C | inconclusive [inhibitor, single point]
2 | CC(CNC(=O)COc1ccccc1)OC(=O)Nc1ccc(Cl)c(Cl)c1 (configuration not stated) | inconclusive [inhibitor, single point]
3 | O=C(Nc1nccs1)c1cccc(S(=O)(=O)N2CCCCC2)c1 | inactive
4 | CCCCOc1ccc(/C(O)=C2/C(=O)C(=O)N(CCCOC)C2c2ccncc2)cc1C (configuration not stated) | inconclusive [inhibitor, partial curve, poor fit]
5 | CC(C)c1ccc(-n2nnnc2SCC(=O)NC2CC2)cc1 | inconclusive [inhibitor, single point]
6 | CC1CCc2c(sc3ncnc(N4CCOCC4)c23)C1 (configuration not stated) | inconclusive [inhibitor, partial curve, poor fit]
7 | CCOc1ccc(C(C)=O)cc1CN1C(=O)NC2(CCCCCCC2)C1=O | active: 11.7 µM
8 | O=C(NCc1ccccc1CN1CCCC1)c1cccc(S(=O)(=O)N2CCOCC2)c1 | inactive
9 | O=C(c1ccc(CSc2nc3ccncc3[nH]2)cc1)N1CCN(c2cccc(Cl)c2)CC1 | inconclusive [inhibitor, single point]
10 | O=C(NC(=S)NNC(=O)c1cc2ccccc2cc1O)c1ccco1 | inconclusive [inhibitor, single point]
11 | O=C1Nc2cc(C(=O)N3CCOCC3)ccc2S/C1=C\c1ccccc1 | inconclusive [inhibitor, single point]
12 | O=C(CC1CCCCC1)NCCCN1CCOCC1 | inactive
13 | Cc1ccc(C(=O)N2CCN(c3ccc(NC(=O)COc4ccccc4C)cc3)CC2)cc1 | active: 8.28 µM
14 | CCOc1ccc(CCNC(=O)CN2C(=O)CCSc3ccccc32)cc1OCC | inactive
15 | C[N+]12CN3CN(CN(C3)C1)C2 | active: 13.1 µM
16 | COc1ccc(NC(=O)C(=O)NCC2CCCN2S(=O)(=O)c2cc(C)ccc2C)cc1 (configuration not stated) | inconclusive [inhibitor, partial curve]
17 | Cc1ccc(-n2ncc3c(NCc4cccnc4)ncnc32)c(C)c1 | inconclusive [inhibitor, single point]
18 | O=C(NCCCn1ccnc1)c1cc(-c2ccncc2)nc2ccccc12 | inactive
19 | CCOc1ccc(S(=O)(=O)Nc2ccccc2C(=O)N(C)C2CCN(C)CC2)cc1 | inconclusive [inhibitor, single point]
20 | CC(=O)OC(C(=O)NC1CCCCC1)c1cccc(C)c1 (configuration not stated) | inactive
21 | Cc1ccc(C)n1-c1cc([N+](=O)[O-])ccc1-n1ccnc1 | active: 11.7 µM
22 | C/C(=N\NC(=S)Nc1ccc(F)cc1)c1ccc2c(c1)OCCO2 | inconclusive [inhibitor, single point]
23 | COc1ccc(N2CCN(C3CC(=O)N(Cc4ccc(N5CCCC5=O)cc4)C3=O)CC2)cc1 (configuration not stated) | inconclusive [inhibitor, full curve]

Row | SMILES | Potency
24 | COc1ccc(Cl)cc1NC(=O)CN(C)C(=O)c1cc2c(F)cccc2s1 | active: 7.38 µM
25 | CC(=O)c1cccc(NC(=O)Nc2cnn(Cc3ccc(F)cc3)c2)c1 | inconclusive [inhibitor, full curve]
26 | O=C(NCCN1CCOCC1)c1ccc2c(c1)N(Cc1c(F)cccc1Cl)C(=O)c1ccccc1S2 | active: 13.1 µM
27 | COc1ccccc1Nc1c([N+](=O)[O-])cncc1[N+](=O)[O-] | inconclusive [inhibitor, single point]
28 | CCOC(=O)c1c(C)[nH]c(C(=O)OCC(=O)N(C)c2c(N)n(Cc3ccccc3)c(=O)[nH]c2=O)c1C | inconclusive [inhibitor, single point]
29 | Cc1nnc(NC(=O)c2nn(CC(C)C)c(=O)c3ccccc23)s1 | inactive
30 | Cn1c(CC(=O)NNC(=O)c2ccccc2[N+](=O)[O-])nc2ccccc21 | inactive
31 | CC(C)n1cnc2c(NCc3ccc(S(N)(=O)=O)cc3)nc(NCc3ccc(S(N)(=O)=O)cc3)nc21 | inconclusive [inhibitor, single point]
32 | Cc1cccc(-n2c(C)cc(/C=N\NC(=O)c3cccs3)c2C)c1 | active: 5.22 µM
33 | COc1ccc(/C=C2\SC(=O)NC2=S)cc1OC | inactive
34 | O=C(Nc1ccccc1)c1sccc1Oc1ccc([N+](=O)[O-])cc1F | inconclusive [inhibitor, single point]
35 | O=C(Cc1c(F)cccc1Cl)N/N=C/c1cccnc1 | inconclusive [inhibitor, single point]
36 | O=C(NC(=S)Nc1ccccc1N1CCCCC1)c1ccc(F)cc1Cl | active: 11.7 µM
37 | CC1(C)Cc2c(C#N)c(NC3CCCCC3)nc(-c3ccco3)c2CO1 | active: 5.86 µM
38 | CCn1c(/C=N/NC(=O)c2ccc(OC)cc2)nc2ccccc21 | inconclusive [inhibitor, single point]
39 | COc1ccccc1NC(=O)C1CCCN(S(=O)(=O)c2ccc(-n3cnnn3)cc2)C1 (configuration not stated) | inconclusive [inhibitor, single point]
40 | Cc1ccc(-c2csc(N3CCC(NS(=O)(=O)c4ccc5c(c4)OCCO5)CC3)n2)cc1 | inconclusive [inhibitor, partial curve]
41 | CC(C)(C)c1csc(NNC(=O)c2ccc(Cl)cc2)n1 | inconclusive [inhibitor, full curve]
42 | Cc1cccc(C)c1OCC(=O)N1CCc2ccccc2C1 | inconclusive [inhibitor, partial curve, poor fit]
43 | N#CCCCN1C(=O)C(O)(CC(=O)c2ccc3c(c2)OCCO3)c2ccccc21 (configuration not stated) | inconclusive [inhibitor, single point]
44 | COC(=O)/C=C/C(=O)Nc1cccnc1 | inconclusive [inhibitor, full curve, poor fit]
45 | S=C(Nc1ccccc1)Nc1nc2ccccc2n1CCOc1ccccc1 | inconclusive [inhibitor, partial curve, poor fit]
46 | CCOC(=O)C1CCN(C(=O)Cc2c(F)cccc2Cl)CC1 | inactive

Row | SMILES | Potency
47 | O=C(c1cnccn1)N1CCc2c([nH]c3ccccc23)C1c1cccc(Cl)c1 (configuration not stated) | inconclusive [inhibitor, partial curve]
48 | COc1cc2c(cc1OC)CN(C(=O)c1ccc(OC)c(S(=O)(=O)N3CCOCC3)c1)CC2 | inconclusive [inhibitor, partial curve, poor fit]
49 | O=C(CN1CCCC1c1cccs1)N1CCN(S(=O)(=O)c2cccc(F)c2)CC1 (configuration not stated) | inconclusive [inhibitor, single point]
50 | CCOc1ccc(NC(=O)C2CCCN(S(=O)(=O)c3ccc4c(c3)CC(C)N4C(C)=O)C2)cc1 (configuration not stated) | inconclusive [inhibitor, partial curve]
51 | Cc1cc(C)c(C)c(S(=O)(=O)Nc2ccccc2C(=O)NCCCn2ccnc2)c1C | inconclusive [inhibitor, single point]
52 | CCN(CC)CCOC(=O)c1ccc(N/C=C(/C#N)c2nc(-c3cc4ccccc4oc3=O)cs2)cc1 | active: 0.0828 µM
53 | COc1cc2nc(N(CCCN(C)C)C(=O)c3ccc(S(=O)(=O)N(C)C4CCCCC4)cc3)sc2cc1OC | inconclusive [inhibitor, single point]
54 | CC(=O)c1cccc(NC(=O)C(C)OC(=O)c2cccc(S(=O)(=O)N3CCN(C)CC3)c2)c1 (configuration not stated) | inconclusive [inhibitor, single point]
55 | Cc1cccc(-n2c(O)c(C=NC34CN5CN(CN(C5)C3)C4)c(=O)[nH]c2=O)c1 | inconclusive [inhibitor, single point]
56 | O=C(COc1nsnc1N1CCOCC1)N/N=C/c1ccccc1O | inconclusive [inhibitor, single point]
57 | C=CCN1C(=O)c2ccc(C(=O)OCC(=O)N(C)C3CCCCC3)cc2C1=O | inconclusive [inhibitor, full curve, poor fit]
58 | Cc1ccccc1OCc1occc1C(=O)Nc1cccc(-n2cnnn2)c1 | inconclusive [inhibitor, single point]
59 | COc1ccc(N(CC(=O)NCc2ccc3c(c2)OCO3)S(=O)(=O)c2ccccc2[N+](=O)[O-])c(OC)c1 | inconclusive [inhibitor, single point]
60 | O=C(Nc1ccc(-c2cn3ccccc3n2)cc1)c1ccco1 | inactive
61 | Cc1ccc(-n2c(C)c([N+](=O)[O-])c3ccc(O)c(CN(C)C)c32)cc1 | active: 13.1 µM
62 | CCC(c1nnnn1CCOC)N(Cc1ccc(C)cc1)Cc1cc2cc(OC)ccc2[nH]c1=O (configuration not stated) | active: 10.4 µM
63 | CCOc1ccc(NC(=O)c2ccc3c(=O)n4c(nc3c2)CCCCC4)cc1 | inconclusive [inhibitor, partial curve, poor fit]
64 | COc1ccc(NC(=O)C/C(C)=N/NC(=O)c2cnccn2)cc1Cl | inconclusive [inhibitor, single point]
65 | CCN(CC)c1ccc(-c2n[nH]c(=S)n2-c2ccccc2C)cc1 | inconclusive [inhibitor, single point]
66 | Cc1nn(-c2ccccc2)c(Cl)c1C(=O)OC(C)C(=O)NC(=O)NC1CCCCC1 (configuration not stated) | inconclusive [inhibitor, partial curve, poor fit]
67 | N=c1c(C(=O)NC2CCCC2)cc2c(=O)n3ccccc3nc2n1Cc1ccccc1 | inconclusive [inhibitor, full curve]
